GI50 and TGI data for one molecule are collected here from PubChem BioAssay (NCI).

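GI50 = concentration required for 50% inhibition of growth.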 Not every entry of the source has a single result; some have several. The other results are left out here. The source may hold further records. Values given together are repeated measurements (runs, samples, wells, individuals or studies). Records carry a tag for their origin. Letters hold for one entry only.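 TGI: total growth inhibition.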

Experiment [1] deals with MOLT-4 leukemia. The experiment is described as follows: NCI tumour cell line growth inhibition, 384-well format.
Experiment [2] has as its system SR leukemia. The experiment is described as above.

For the molecule `COc1ccc(C2=N[C@@H](c3ccc(Cl)cc3)[C@@H](c3ccc(Cl)cc3)N2C(=O)N2CCNC(=O)C2)c(OC(C)C)c1`, in experiment [1], the GI50 was 2.32 µM [sample A, 1 test] and 155 nM [sample B, 1 test] and 178 nM [sample C, 1 test]; the TGI was 4.76 µM [sample A, 1 test] and 294 nM [sample B, 1 test] and 321 nM [sample C, 1 test]. Also, in experiment [2], the GI50 is 3.57 µM [sample A, 1 test] and 153 nM [sample B, 1 test] and 183 nM [sample C, 1 test]; the TGI was 12.2 µM [sample A, 1 test] and 307 nM [sample B, 1 test] and 344 nM [sample C, 1 test].
